# According to article PMC10668032:
# The other results are listed elsewhere or left out. At the low end of the ranking the order means little.
# Biological target: SIX1 homeodomain (reference allele) (UniProt Q15475)
# Assay: universal protein binding microarray
# Settings: Universal all-10-mer PBM (8x60K, AMADID 030236), 300 nM GST-tagged protein, Alexa Fluor 488 anti-GST; buffer, salt, pH and temperature not stated; high values mean tight binding; most listed sequences are background and not binding sites; double strand, one strand shown
row,Sequence,binding signal [E-score]
1,AGCAGACG,-0.209
2,AATATTCT,0.0285
3,ATTTTACA,-0.162
4,GAGCTATC,0.282
5,CTCTATAA,-0.0753
6,CTTCCAAA,-0.226
7,GCTGCACC,-0.0757
8,CTATCTTC,0.107
9,TCGGCCCA,-0.139
10,ACCTAATG,-0.0118
11,ACCTGTGA,0.00985
12,CCTCTGCA,-0.0762
13,TTCATAAA,-0.192
14,GCAGTCCA,-0.213
15,ACTTTCAG,-0.111
16,ATAACGCA,0.0308
17,ACCGCGCG,0.175
18,TTAGATAA,0.133
19,GGCTATGA,-0.101
20,GGGCGACC,-0.0587
21,CCGGCCCA,-0.156
22,GTGATATA,0.419
23,AGCATTGG,-0.204
24,AACCCCCA,-0.119
25,AAAGTCGG,-0.223

row,Sequence,binding signal [E-score]
1,CTAAGGTA,0.0753
2,CTTATTCC,-0.0854
3,AACCATAG,-0.157
4,GCGGTGCC,-0.0843
5,CATTTCGC,-0.0436
6,AGCCAGAA,-0.27
7,CCTAGTAG,-0.0213
8,ATTGAAGG,-0.15
9,ACGAGTCA,-0.222
10,CGGGACAC,0.153
11,AATGAGCA,-0.177
12,AAGGCATA,-0.0161
13,CATCCTCA,0.0138
14,GGAAGCAC,-0.2
15,AGGTCCAC,-0.307
16,ACAGATCG,0.235
17,GATCCGTA,0.383
18,ATGTCTAA,-0.00734
19,AAGAACAC,-0.0346
20,GTGGATAA,0.249
21,CTTAGACA,-0.118
22,CATCTAAG,0.178
23,GATGGGAC,-0.0817
24,CACCCCCC,0.0352
25,TCCTCGCA,-0.174

row,Sequence,binding signal [E-score]
1,ACGGCACC,-0.2
2,ACCGGCGT,-0.0532
3,ATCTCTTC,0.237
4,CTTGCGCC,-0.198
5,ATATACAT,0.301
6,CCCGATGA,0.226
7,ACCTAGAC,-0.14
8,GTCATAGA,-0.0374
9,AGAGTCAG,-0.15
10,AGGCTTGC,-0.22
11,CGCTCAGA,-0.133
12,ACAAGCGC,-0.31
13,CCGATCGC,0.212
14,TCCCCGGA,0.11
15,AAACGAAC,-0.0714
16,CTGCAACC,-0.0757
17,TGACAAAA,-0.249
18,ACTATTGC,-0.166
19,AGATGACA,0.0629
20,AGTGAATC,-0.0511
21,AAGACTGC,-0.291
22,GAAATTTA,-0.283
23,AATACCTC,0.331
24,AGAACTAC,-0.0612
25,ATAAAATA,0.201

row,Sequence,binding signal [E-score]
1,CGAGCGTA,-0.0467
2,AATATCCG,0.317
3,CTGCGTGC,-0.199
4,AATCATCC,0.0593
5,ACAGCCAT,0.0303
6,ATGGATCC,0.362
7,GGCAGAAA,-0.139
8,TGAATAAA,-0.238
9,TCGAGTAA,-0.108
10,CCGAGACG,0.0724
11,CAGACTGA,-0.00513
12,AGAGAGGA,0.0333
13,ATACGTCG,0.284
14,GGCCACCC,-0.274
15,AAATCAAG,-0.234
16,CTCAAAAC,-0.1
17,TCATTTAA,0.0933
18,TACATATA,0.254
19,CCCACAAA,0.0457
20,CATTAGAC,0.0165
21,AAGCGCCC,-0.196
22,CAAAGTCC,-0.096
23,AGACGCTA,0.0493
24,AATGACTC,-0.212
25,CGACGAAG,-0.135

row,Sequence,binding signal [E-score]
1,GTCGCTGA,-0.0154
2,GCTAGGAA,-0.138
3,CAAATGAC,-0.292
4,AAAGCCGC,-0.288
5,CATGCAGC,-0.0629
6,AACCCTGC,0.0338
7,GCCGAACA,-0.239
8,ACATTTAC,-0.171
9,GCAGGTTA,0.0305
10,AAAGGACG,-0.287
11,CAGGAATC,0.133
12,AGGGGGCC,-0.245
13,AGACCTTA,0.0295
14,AGCGATTG,-0.0994
15,ATGTCTTA,-0.0747
16,AGGAGTTG,-0.112
17,AACCGAGC,-0.154
18,GAGCCGAC,-0.172
19,GAACCCAC,0.106
20,CAACTTAG,-0.0537
21,AAGCAGTA,-0.0251
22,GAGCTAAA,-0.196
23,ATCCACCC,0.343
24,GAGTATGC,-0.0971
25,CACAAAGC,-0.137

row,Sequence,binding signal [E-score]
1,GATGGACA,-0.00968
2,CACACAGC,-0.164
3,CATAACAA,-0.175
4,CACTGGGG,0.0491
5,AAGCTACT,0.00855
6,CGGGTCCC,0.0186
7,ACATGTTA,-0.0786
8,CCGCTTGC,-0.0988
9,AGAGAGGG,0.0238
10,ATACCCAA,0.401
11,AATTTGAT,0.149
12,TAATACAA,0.154
13,CATGCTCG,-0.198
14,TGTACAAA,-0.21
15,AGGGTGAT,0.366
16,GCTGCCAC,-0.201
17,AATTTTAC,-0.242
18,ATAGGGGA,0.287
19,AGTCATAT,0.257
20,AGATACTC,0.402
21,AAACGGTC,-0.335
22,GCCGCTCA,-0.201
23,CTTCGGAC,0.0614
24,AGGAACTC,-0.286
25,GAATGGTA,-0.0789

row,Sequence,binding signal [E-score]
1,ATGAGGGG,0.0899
2,AGCGCAGG,-0.115
3,GTGCCAAC,-0.0705
4,GGGGGGTA,0.26
5,GAAACGTA,-0.161
6,GCTGTCAA,-0.154
7,GCCTTTAC,-0.178
8,ACTTATAG,-0.0185
9,AAGAAATA,-0.13
10,AAAGGAGG,-0.202
11,GACCCATA,0.116
12,ACCATTCT,-0.118
13,GCTGGCCC,-0.182
14,ACAGGGGT,0.156
15,GTGAACCA,-0.0156
16,AGTGAAAA,-0.172
17,CTTTCAGA,-0.094
18,CGTCGCAG,-0.168
19,GACGAGGA,-0.0704
20,GGAGGCCA,-0.0651
21,ATCCGCCG,0.361
22,ACTGATGA,-0.0721
23,AGGATCTG,0.244
24,CTCCGGGC,-0.16
25,CTAGAGCA,-0.0639

row,Sequence,binding signal [E-score]
1,GAAGTCCC,-0.288
2,AACAAAAT,-0.334
3,AGTTGTTC,-0.33
4,TCATAGCA,-0.0469
5,CCTCTCTA,-0.104
6,CCTGGTAC,-0.0166
7,CCATTTCG,-0.0817
8,CCAACTCG,-0.00197
9,TAAAGTGA,0.131
10,CGCATCTA,0.0774
11,ACCTTACG,-0.102
12,CACGCGCA,-0.109
13,ATAGCCTG,0.205
14,CCATATTA,0.265
15,AAACCGTG,-0.00827
16,CACAAGCC,-0.241
17,GTATTAAC,0.272
18,TAGTTCGA,-0.0607
19,ACGATAAA,-0.161
20,TATATACA,0.284
21,AGTGGCAA,-0.0548
22,CATATCGC,0.424
23,CAGCTGTA,-0.2
24,CTAGAGAC,-0.179
25,TGAAATCA,-0.131

row,Sequence,binding signal [E-score]
1,AGCGGCAT,0.0587
2,CGATAAAA,0.0179
3,AAGACTAG,-0.268
4,AGTTGTTA,-0.183
5,ATTTACTA,-0.0211
6,AATACAGT,-0.0384
7,AGAACTTA,-0.00409
8,CTCGGACC,-0.0627
9,GCTCAGCA,-0.163
10,AGAATATC,0.283
11,AATTTTAT,-0.0921
12,ATGACCCG,0.119
13,GCGGCCCA,-0.207
14,ACTCTGTC,-0.104
15,AATGCACA,0.00443
16,TCCTTAAA,-0.0982
17,TGCAGACA,-0.105
18,AGCGTAGA,-0.063
19,ATGTGGGA,0.0217
20,AGTACGAA,-0.0528
21,AACCATAA,-0.125
22,CCCCCGTC,-0.0781
23,CCGTAGCC,-0.157
24,CTAAATAG,-0.0261
25,ATCTAGCG,-0.00709

row,Sequence,binding signal [E-score]
1,GTGCGATA,0.36
2,CCTACGGA,0.0576
3,CTCGGTTA,0.0335
4,AAGTTCCC,-0.291
5,GCTATAAA,-0.0708
6,CAACAGTC,-0.168
7,CCTAAGTC,-0.173
8,ACCAAGAT,0.145
9,GGCATTCA,-0.067
10,CAAATCCC,0.0211
11,CAGTTCCA,-0.0691
12,TAGAGATA,0.268
13,CCACTTGC,0.00498
14,AAAATTAT,-0.0602
15,AAGATAAA,-0.0649
16,AGGCTCCA,-0.155
17,AATAAAGG,-0.171
18,GGTTGTGA,-0.116
19,CTAATTCA,-0.201
20,CCTGCGAG,0.0434
21,GAGGCCCC,-0.29
22,CTATTAAC,-0.00142
23,ACCTGGCG,-0.0637
24,AACCAGAC,-0.217
25,CACCAGGA,0.0222

row,Sequence,binding signal [E-score]
1,ACTACTAC,-0.112
2,GTACTGGA,0.0566
3,AATGCGAT,0.123
4,AATGTGCG,0.129
5,CTTCCTTC,-0.219
6,AGCCACGA,-0.0187
7,TTAGGCAA,-0.231
8,TAACTTAA,0.0397
9,CAGACTGG,-0.122
10,AAACCATA,0.103
11,GCTCCCCC,-0.334
12,CATACTCC,0.136
13,CTCGGGAC,-0.271
14,AAGTACAA,-0.218
15,CATGTCCA,0.0429
16,AATTCCAA,-0.181
17,TAATTCCA,-0.00988
18,AGGGCCCA,-0.323
19,AGCTCTCC,-0.158
20,TGCTAAAA,-0.161
21,GCAAATCC,-0.105
22,ATTCTAGA,0.0195
23,AAAGTTCG,-0.215
24,CTTACAGC,-0.0499
25,AGGAATTG,0.0141

row,Sequence,binding signal [E-score]
1,AGGGACAC,0.0701
2,AGATACAA,0.168
3,ATGTAGGA,0.0156
4,AACGCCTT,-0.314
5,GAGAAAGA,-0.0414
6,CAGACTAG,-0.117
7,ATAGCATA,0.218
8,ATGAGTCG,-0.108
9,AGTAGGTC,-0.0888
10,GCCACTTA,-0.0268
11,CGACAGAG,-0.171
12,TCGGCTCA,0.0122
13,CTCTCCCC,0.164
14,CCCCGTGC,0.0193
15,CCGTAGAG,-0.138
16,TCCTCTAA,0.0708
17,CACGCCTG,-2.5e-05
18,AATCTCAT,0.121
19,GACTACCA,-0.0567
20,CTGGGTCC,-0.127
21,GAAATTAC,-0.312
22,AAACTTCA,-0.266
23,TCCCGGGA,-0.0934
24,CGTAAACG,-0.232
25,CAGGATAA,0.237

row,Sequence,binding signal [E-score]
1,CCGGAGCC,-0.0815
2,CTTGCAGA,0.0249
3,CCCCTGGC,0.16
4,ATAGGTCA,0.0622
5,ACTTTCTG,-0.272
6,ACCTCGTA,0.0611
7,AGGTCTAT,0.0598
8,AGTAAATG,-0.0757
9,AAGGTCGC,-0.321
10,GGCAACCA,-0.124
11,GGAAGTTA,-0.133
12,AAGATACG,0.322
13,CGTCGGTA,-0.0562
14,TAGAGCAA,-0.307
15,AGAATTTC,-0.213
16,GAAGGGGC,-0.108
17,GTTTATGA,0.0419
18,AAAACTTT,-0.263
19,AGATCCAA,0.204
20,ATCGGCTC,0.269
21,GGGCAATA,0.123
22,CGGGCAAA,-0.196
23,CGATGTGC,-0.143
24,CCGCAGCC,-0.0973
25,ATTGAACA,-0.0746

row,Sequence,binding signal [E-score]
1,ATACAAAT,0.0939
2,AAGGTGAG,0.0174
3,AACTTATT,-0.126
4,AATTCCGA,-0.052
5,CCCAGTGA,-0.0871
6,AACTCGGT,-0.0571
7,CAGGCTAG,-0.0928
8,GCTTGGGA,-0.0273
9,GGCAAAAA,-0.313
10,CTGGTGTC,0.414
11,CACTCCAA,-0.197
12,TAGCCGCA,0.0127
13,TGTCTGAA,-0.0176
14,CCTACTTC,-0.118
15,CTAGCACA,-0.267
16,GGTGCGGA,0.000785
17,AGTGACTC,-0.0801
18,CAATCTGG,0.109
19,CGGCCGAA,-0.0831
